Data: the supplement of paper PMC8728848
The other results are listed elsewhere or left out.

Tests used:
Test in all cases: glycan array binding signal (z-score within array); higher = stronger binding
Conditions in all cases: glycan notation: IUPAC condensed, linker removed
[1] = biological target: GlcNAc(b1-3)Gal(b1-4)GlcNAc(b1-3)Gal(b1-4)GlcNAc(b1-2)Man(a1-3)[GlcNAc(b1-3)Gal(b1-4)GlcNAc(b1-3)Gal(b1-4)GlcNAc(b1-2)Man(a1-6)]Man(b1-4)GlcNAc(b1-4)[Fuc(a1-6)]GlcNAc
How it was run: (§1)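 Glycan array data came from 3228 arrays in the Consortium for Functional Glycomics database, and only arrays with an available protein sequence were kept. Glycan names were put into IUPAC-condensed notation, and columns mapping to the same glycan were averaged. The binding signal is a within-array Z-score, averaged across arrays of one protein sequence run at different concentrations or buffers and across linkers. A negative Z-score can be read as non-binding.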

[2] = biological target: GlcNAc(b1-3)Gal(b1-4)GlcNAc(b1-3)Gal(b1-4)GlcNAc(b1-2)[GlcNAc(b1-3)Gal(b1-4)GlcNAc(b1-3)Gal(b1-4)GlcNAc(b1-6)]Man(a1-6)[GlcNAc(b1-3)Gal(b1-4)GlcNAc(b1-3)Gal(b1-4)GlcNAc(b1-2)Man(a1-3)]Man(b1-4)GlcNAc(b1-4)[Fuc(a1-6)]GlcNAc
How it was run: as §1

[3] = biological target: GlcNAc(b1-3)Gal(b1-4)GlcNAc(b1-3)Gal(b1-4)GlcNAc(b1-3)Gal(b1-4)GlcNAc(b1-2)Man(a1-3)[GlcNAc(b1-3)Gal(b1-4)GlcNAc(b1-3)Gal(b1-4)GlcNAc(b1-3)Gal(b1-4)GlcNAc(b1-2)Man(a1-6)]Man(b1-4)GlcNAc(b1-4)GlcNAc
How it was run: as §1

[4] = biological target: GlcNAc(b1-3)Gal(b1-4)GlcNAc(b1-3)Gal(b1-4)GlcNAc(b1-3)Gal(b1-4)GlcNAc(b1-2)Man(a1-3)[GlcNAc(b1-3)Gal(b1-4)GlcNAc(b1-3)Gal(b1-4)GlcNAc(b1-3)Gal(b1-4)GlcNAc(b1-2)Man(a1-6)]Man(b1-4)GlcNAc(b1-4)[Fuc(a1-6)]GlcNAc
How it was run: as §1

[5] = biological target: GlcNAc(b1-3)Gal(b1-4)GlcNAc(b1-3)Gal(b1-4)GlcNAc(b1-3)Gal(b1-4)GlcNAc(b1-2)[GlcNAc(b1-3)Gal(b1-4)GlcNAc(b1-3)Gal(b1-4)GlcNAc(b1-3)Gal(b1-4)GlcNAc(b1-6)]Man(a1-6)[GlcNAc(b1-3)Gal(b1-4)GlcNAc(b1-3)Gal(b1-4)GlcNAc(b1-3)Gal(b1-4)GlcNAc(b1-2)Man(a1-3)]Man(b1-4)GlcNAc(b1-4)[Fuc(a1-6)]GlcNAc
How it was run: as §1

[6] = biological target: GlcNAc(b1-3)Gal(b1-4)GlcNAc(b1-3)Gal(b1-4)GlcNAc(b1-3)Gal(b1-4)GlcNAc(b1-3)Gal(b1-4)GlcNAc(b1-2)Man(a1-3)[GlcNAc(b1-3)Gal(b1-4)GlcNAc(b1-3)Gal(b1-4)GlcNAc(b1-3)Gal(b1-4)GlcNAc(b1-3)Gal(b1-4)GlcNAc(b1-2)Man(a1-6)]Man(b1-4)GlcNAc(b1-4)GlcNAc
How it was run: as §1

[7] = biological target: GlcNAc(b1-3)Gal(b1-4)GlcNAc(b1-3)Gal(b1-4)GlcNAc(b1-3)Gal(b1-4)GlcNAc(b1-3)Gal(b1-4)GlcNAc(b1-2)Man(a1-3)[GlcNAc(b1-3)Gal(b1-4)GlcNAc(b1-3)Gal(b1-4)GlcNAc(b1-3)Gal(b1-4)GlcNAc(b1-3)Gal(b1-4)GlcNAc(b1-2)Man(a1-6)]Man(b1-4)GlcNAc(b1-4)[Fuc(a1-6)]GlcNAc
How it was run: as §1

[8] = biological target: GlcNAc(b1-3)Gal(b1-4)GlcNAc(b1-3)Gal(b1-4)GlcNAc(b1-3)Gal(b1-4)GlcNAc(b1-3)Gal(b1-4)GlcNAc(b1-2)[GlcNAc(b1-3)Gal(b1-4)GlcNAc(b1-3)Gal(b1-4)GlcNAc(b1-3)Gal(b1-4)GlcNAc(b1-3)Gal(b1-4)GlcNAc(b1-6)]Man(a1-6)[GlcNAc(b1-3)Gal(b1-4)GlcNAc(b1-3)Gal(b1-4)GlcNAc(b1-3)Gal(b1-4)GlcNAc(b1-3)Gal(b1-4)GlcNAc(b1-2)Man(a1-3)]Man(b1-4)GlcNAc(b1-4)[Fuc(a1-6)]GlcNAc
How it was run: as §1

[9] = biological target: GlcNAc(b1-3)Gal(b1-4)GlcNAc(b1-3)Gal(b1-4)GlcNAc(b1-3)GalNAc
How it was run: as §1

[10] = biological target: GlcNAc(b1-3)Gal(b1-4)GlcNAc(b1-3)GalNAc
How it was run: as §1

[11] = biological target: GlcNAc(b1-3)Gal(b1-4)GlcNAc(b1-3)[GlcNAc(b1-3)Gal(b1-4)GlcNAc(b1-3)]GalNAc
How it was run: as §1

[12] = biological target: GlcNAc(b1-3)Gal(b1-4)GlcNAc(b1-6)[Gal(b1-3)]GalNAc
How it was run: as §1

[13] = biological target: GlcNAc(b1-3)Gal(b1-4)GlcNAc(b1-6)[GlcNAc(b1-3)Gal(b1-3)]GalNAc
How it was run: as §1

[14] = biological target: GlcNAc(b1-3)Gal(b1-4)GlcNAc(b1-6)[GlcNAc(b1-3)]Gal(b1-4)GlcNAc
How it was run: as §1

[15] = biological target: GlcNAc(b1-3)GalNAc
How it was run: as §1

[16] = biological target: GlcNAc(b1-3)Man
How it was run: as §1

[17] = biological target: GlcNAc(b1-3)[GlcNAc(b1-4)][GlcNAc(b1-6)]GlcNAc
How it was run: as §1

[18] = biological target: GlcNAc(b1-3)[GlcNAc(b1-6)]Gal(b1-4)GlcNAc
How it was run: as §1

[19] = biological target: GlcNAc(b1-3)[GlcNAc(b1-6)]GalNAc
How it was run: as §1

[20] = biological target: GlcNAc(b1-4)Gal(b1-4)GlcNAc
How it was run: as §1

[21] = biological target: GlcNAc(b1-4)GlcNAc
How it was run: as §1

[22] = biological target: GlcNAc(b1-4)GlcNAc(b1-4)GlcNAc
How it was run: as §1

[23] = biological target: GlcNAc(b1-4)GlcNAc(b1-4)GlcNAc(b1-4)GlcNAc(b1-4)GlcNAc
How it was run: as §1

[24] = biological target: GlcNAc(b1-4)GlcNAc(b1-4)GlcNAc(b1-4)GlcNAc(b1-4)GlcNAc(b1-4)GlcNAc
How it was run: as §1

[25] = biological target: GlcNAc(b1-4)[GlcNAc(b1-6)]GalNAc
How it was run: as §1

[26] = biological target: GlcNAc(b1-6)Gal(b1-4)GlcNAc
How it was run: as §1

[27] = biological target: GlcNAc(b1-6)GalNAc
How it was run: as §1

[28] = biological target: GlcNAc6S(b1-3)Gal(b1-4)GlcNAc
How it was run: as §1

[29] = biological target: Kdn(a2-3)Gal(b1-3)GalNAc
How it was run: as §1

[30] = biological target: Kdn(a2-3)Gal(b1-3)GlcNAc
How it was run: as §1

[31] = biological target: Kdn(a2-3)Gal(b1-4)Glc
How it was run: as §1

[32] = biological target: Kdn(a2-3)Gal(b1-4)GlcNAc
How it was run: as §1

[33] = biological target: Kdn(a2-3)Gal(b1-4)[Fuc(a1-3)]GlcNAc
How it was run: as §1

[34] = biological target: Kdn(a2-6)Gal(b1-4)GlcNAc
How it was run: as §1

[35] = biological target: Man(a1-2)Man(a1-2)Man(a1-3)Man
How it was run: as §1

[36] = biological target: Man(a1-2)Man(a1-2)Man(a1-6)[Man(a1-3)]Man
How it was run: as §1

[37] = biological target: Man(a1-2)Man(a1-3)Man
How it was run: as §1

[38] = biological target: Man(a1-2)Man(a1-3)[Man(a1-2)Man(a1-6)]Man
How it was run: as §1

B1: PX14367A-bth-493-35-493 (Bacteroides thetaiotaomicron) (protein)
chain: VSSDQVAVAGNAERLFNGAWYNLFEYGTTYANIGYRALQCQDDMMASDVVSRPKYGFNSSYQFNDVAIPSDGRTSFAWYLIYKTIDNCNTAISIKGDSEELRQAQGQALALRAFCYLHLVQHYQFTYLKDKDAPCVPIYTEPTTSGTKPKGKSTVAQVYQQIFDDLNLAQDYLTNYVRKGDGQKFKPNTDVVNGLMARAYLLTGQWGEAAKAAEAARKGYSLMTTTAEYEGFNNISNKEWIWGSPQTLSQSDASYNFYYLDATYVGAYSSFMADPHLMDTFVKGDIRLPLFQWMREGYLGYKKFHMRSDDTADLVLMRSAEMYLIEAEAKVRDGVALDQAVAPLNTLRTARGVGNYDVTGKTKEQVIDEILMERRRELWGEGFGITDVLRNQKAVERMALSEDMQKTEVDCWQEGGSFAKRNPLGHWFLNFPDGKAFSANSSYYLYAIPEKEINANPNL
- glycan array binding signal (z-score) [1]: 0.088
- glycan array binding signal (z-score) [2]: -0.347
- glycan array binding signal (z-score) [3]: -0.507
- glycan array binding signal (z-score) [4]: -0.073
- glycan array binding signal (z-score) [5]: 0.046
- glycan array binding signal (z-score) [6]: -0.11
- glycan array binding signal (z-score) [7]: -0.036
- glycan array binding signal (z-score) [8]: -0.122
- glycan array binding signal (z-score) [9]: -0.704
- glycan array binding signal (z-score) [10]: -0.007
- glycan array binding signal (z-score) [11]: 0.349
- glycan array binding signal (z-score) [12]: 0.536
- glycan array binding signal (z-score) [13]: 0.046
- glycan array binding signal (z-score) [14]: -0.7
- glycan array binding signal (z-score) [15]: -0.382
- glycan array binding signal (z-score) [16]: -0.013
- glycan array binding signal (z-score) [17]: -0.618
- glycan array binding signal (z-score) [18]: -0.591
- glycan array binding signal (z-score) [19]: -0.437
- glycan array binding signal (z-score) [20]: -0.18
- glycan array binding signal (z-score) [21]: -0.313
- glycan array binding signal (z-score) [22]: -0.384
- glycan array binding signal (z-score) [23]: -0.597
- glycan array binding signal (z-score) [24]: -0.312
- glycan array binding signal (z-score) [25]: 0.088
- glycan array binding signal (z-score) [26]: -0.526
- glycan array binding signal (z-score) [27]: -0.498
- glycan array binding signal (z-score) [28]: -0.213
- glycan array binding signal (z-score) [29]: 0.025
- glycan array binding signal (z-score) [30]: -0.708
- glycan array binding signal (z-score) [31]: -0.558
- glycan array binding signal (z-score) [32]: -0.675
- glycan array binding signal (z-score) [33]: -0.445
- glycan array binding signal (z-score) [34]: -0.387
- glycan array binding signal (z-score) [35]: -0.464
- glycan array binding signal (z-score) [36]: -0.257
- glycan array binding signal (z-score) [37]: 0.44
- glycan array binding signal (z-score) [38]: -0.301
